# The shares of active, inactive and inconclusive entries below differ from those in the screen. For some assays here: A potency beside an inconclusive call is a rough fit, not a confirmed value. For some assays here: “Side channel” marks fits to a control or component signal instead of the main read-out. Active and inactive are the calls of the source. Unless noted, calls come from the whole dose curve; as a rule, active = well fitted curve in the direction sought with a large enough effect; inconclusive = small, poorly fitted or top-dose-only effect, or another doubt; inactive = no such curve, though single readings can be large; an effect the other way counts as inactive or inconclusive.
# What was measured:
# [1] = MultiTox-Fluor Cytotoxicity Assay - LYMP1-002 - Dead Cells (AID 960); details: LYMP1-002 lymphoblastoid cells, dead-cell protease fluorescence; cytotoxicity (dead cells): at 46.1 µM (top of the series);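 note: cells exposed to compound for 16 h at 37 °C; 0% = DMSO and 100% = tetraoctylammonium bromide; nearly all actives have a fitted effect of over 60% in size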
# Procedure, shortened: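 Human lymphoblastoid LYMP1-002 cells, 2500/well, treated 16 h at 37 C; dead-cell protease cleavage of bis-AAF-R110 read by fluorescence (485/520); normalized to DMSO and 15 uM tetraoctylammonium bromide; AC50 from Hill fit.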
# [2] = Stat Signaling Pathway (AID 446; active = well fitted curve in either direction with a large enough effect, not every such curve was filed as active; inconclusive = small, poorly fitted or top-dose-only effect, or another doubt;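 note: ME-180 cervical cancer cells given 40 pM IL-6 alongside compound; SIE-controlled beta-lactamase reporter measured as 460/530 nm FRET emission ratio; top concentration of the series differs between compounds; % is set by controls: 0 for no effect and ±100 for the full control effect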); details: ME-180 (cervical carcinoma) SIE beta-lactamase reporter, IL-6 stimulated, 5 h; at 38 µM (top of the series) unless noted
# Procedure, shortened: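 IL-6/STAT signaling read in ME-180 cells via an SIE beta-lactamase reporter. Stimulus was 40 pM IL-6 (its AC50) for 5 hrs, so both activation and inhibition register.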
# [3] = qHTS for differential inhibitors of proliferation of Plasmodium falciparum line GB4 (AID 1816); details: Potency: Plasmodium falciparum GB4 proliferation inhibition;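 note: parasite growth measured after 72 h incubation; 0% = vehicle DMSO and -100% = reference inhibitor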
# [4] = Confirmatory qHTS to identify inhibitors of SARS-CoV-2 cell entry (AID 1645844; calls by dose curve; note: potency is the fitted concentration of half-maximal effect; nearly all actives have a fitted effect of over 45% in size); details: SARS-CoV-2 pseudotyped particle cell entry, luciferase; activity, negative = inhibition: at 57.2 µM (top of the series)
# Procedure, shortened: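 HEK293-ACE2 cells were pretreated 1 h with compound, then infected with MLV-based pseudoparticles bearing C-terminally truncated Wuhan-Hu-1 spike for 48 h at 37C; luciferase luminescence normalized to spike PP and bald PP wells.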
# [5] = qHTS assay to identify inhibitors of the type 1 interferon - major histocompatibility complex class I in skeletal muscle: Counter screen cell viability and HiBit confirmation (AID 1347412); details: iHSKM muscle cells + IFN-b, HiBiT or CellTiter-Glo, 24 h; HiBiT; note: potency is the fitted concentration of half-maximal effect; nearly all actives have a fitted effect of over 60% in size
# Procedure, shortened: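 Human myoblast knock-in line, 4.0 ng/ml IFN-beta stimulation, 24 h compound treatment. Endpoints: HiBiT lytic luminescence (HLA-B level) and CellTiter Glo (ATP). Dosing 12 concentrations, 3-fold steps, 46 uM highest final.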
# [6] = Cell Viability - LYMP1-003 - Assay at 40 hr (AID 964); note: % is set by controls: 0 for no effect and ±100 for the full control effect; nearly all actives have a fitted effect of over 60% in size
# Procedure, shortened: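 LYMP1-003 human lymphoblastoid cells, 2500/well, preincubated 5 h at 37 C, then treated with compound for 40 h at 37 C. Intracellular ATP read by CellTiter-Glo luminescence after 30 min at room temperature; AC50 from Hill-equation fits.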
# [7] = Cell Viability - LYMP2-025 (AID 976); details: LYMP2-025 lymphoblastoid cell viability; activity change, negative = cytotoxicity: at 92.2 µM (top of the series);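 note: plate controls were DMSO only for no effect and tetraoctylammonium bromide control for full effect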
# Procedure, shortened: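 Human lymphoblastoid LYMP2-025 cells, 2500/well, exposed 24 h at 37 C in complete medium in 1536-well qHTS. Viability as cellular ATP by CellTiter-Glo luminescence; AC50 from Hill fits of concentration-response data.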
# [8] = Cell Viability - N2a (AID 540); details: N2a mouse neuroblastoma cell viability; activity change, negative = cytotoxicity: at 92.2 µM (top of the series);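 note: plate controls were DMSO alone for no effect and tamoxifen control for full effect; nearly all actives have a fitted effect of over 45% in size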
# Procedure, shortened: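 Mouse neuroblastoma N2a cells, 1500/well, exposed to compounds 40 h at 37 °C in complete medium. Viability measured as cellular ATP by CellTiter-Glo luminescence; AC50 from Hill fits of concentration-response.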
# [9] = Cell Viability - H-4-II-E (AID 543); note: potency is the fitted concentration of half-maximal effect; nearly all actives have a fitted effect of over 35% in size
# Procedure, shortened: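 Rat hepatoma H-4-II-E cells, 1500 per well, treated 40 h at 37 °C in complete medium. Cellular ATP read by CellTiter-Glo luminescence; AC50 from Hill fits of concentration-response.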
# [10] = Cell Viability - Renal Proximal Tubule (AID 545); details: renal proximal tubule cells viability; activity change, negative = cytotoxicity: at 91.7 µM (top of the series) unless noted;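 note: 0% = DMSO only and -100% = 100 µM tamoxifen; nearly all actives have a fitted effect of over 40% in size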
# Procedure, shortened: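 In this qHTS format, normal rat kidney-derived proximal tubule cells in complete culture medium receive compound titrations, then sit 40 hours at 37 °C before luciferase-based ATP quantitation; potency is reported as AC50 from concentration-response curves.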
# [11] = Cell Viability - LYMP2-001 (AID 921); details: LYMP2-001 lymphoblastoid cell viability; activity change, negative = cytotoxic: at 92.2 µM (top of the series); note: potency is the fitted concentration of half-maximal effect; nearly all actives have a fitted effect of over 70% in size
# Procedure, shortened: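 A lymphoblastoid cell line of human origin was treated with library compounds across a concentration series for 24 hours, and viable cell number was estimated from ATP-driven luciferase light output. Hill modeling gave AC50.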
# [12] = Cell Viability - LYMP2-011 (AID 969); details: LYMP2-011 lymphoblastoid cells viability; viability change, negative = cytotoxic: at 92.2 µM (top of the series); note: potency is the fitted concentration of half-maximal effect; nearly all actives have a fitted effect of over 60% in size
# Procedure, shortened: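 2500 cells/well in complete medium, compound-treated 24 h at 37 C. Viability read as intracellular ATP by CellTiter-Glo luminescence after 30 min at room temperature. AC50 from Hill fits of qHTS concentration-response data.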
# [13] = Cell Viability - LYMP2-007 (AID 979)
# Procedure, shortened: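 Human lymphoblastoid LYMP2-007 cells (2500/well) preincubated 5 h at 37 C, then treated 24 h at 37 C in complete medium. Viability by CellTiter-Glo ATP luminescence after 30 min at room temperature; AC50 from Hill fits.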
# [14] = Cell Viability - LYMP2-008 (AID 980)
# Procedure, shortened: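 LYMP2-008 lymphoblastoid cells (2500/well) plated 5 h, then treated 24 h at 37 C in complete medium. Viability read as intracellular ATP by CellTiter-Glo luminescence after 30 min at room temperature; AC50 from Hill fits.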
# [15] = Cell Viability - LYMP2-010 (AID 981); note: potency is the fitted concentration of half-maximal effect; nearly all actives have a fitted effect of over 55% in size
# Procedure, shortened: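 Human lymphoblastoid LYMP2-010 cells (2500/well) treated 24 h at 37 C in complete medium; viability read as intracellular ATP by CellTiter-Glo luminescence. AC50 from Hill fits of concentration-response data; tetraoctylammonium bromide positive control.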
# [16] = Cell Viability - LYMP2-012 (AID 982);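 note: cellular ATP by luciferase luminescence where a drop means cytotoxicity; cells exposed to compound for one day before reading; 0% = DMSO only and full loss = 92 µM tetraoctylammonium bromide; nearly all actives have a fitted effect of over 55% in size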
# [17] = Cell Viability - LYMP2-018 (AID 985); details: LYMP2-018 lymphoblastoid cells, viability (qHTS); activity change, negative = cytotoxicity: at 92.2 µM (top of the series);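 note: potency is the fitted concentration of half-maximal effect; compound exposure lasted 24 hr at 37 °C; nearly all actives have a fitted effect of over 50% in size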
# Procedure, shortened: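 Human lymphoblastoid LYMP2-018 cells, 2500/well, settled 5 hr at 37 C then exposed to compound 24 hr at 37 C; intracellular ATP measured by CellTiter-Glo luminescence. AC50 from Hill-equation concentration-response fits.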
# [18] = target: Peroxisome proliferator-activated receptor delta (Homo sapiens) (UniProt Q03181); experiment: qHTS assay for small molecule agonists of peroxisome proliferator-activated receptor delta signaling (AID 588534; calls by dose curve; note: potency is the fitted concentration of half-maximal effect); details: HEK293T PPARdelta-UAS-bla, beta-lactamase ratio, 18 h; activation: at 76.7 µM (top of the series)
# Procedure, shortened: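 Cells carrying a PPAR-delta beta-lactamase reporter were treated with compounds for 18 h at 37 °C in agonist mode. CCF4 fluorescence was read after 2 h; EC50 and efficacy from Hill fits.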
# [19] = qHTS assay for cell viability of HEK293 cells (AID 743288); details: ATP luminescence (CellTiter-Glo), 18 h; max response: active compounds read low; note: potency is the fitted concentration of half-maximal effect; nearly all actives have a fitted effect of over 50% in size
# Procedure, shortened: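 Luminescent ATP quantitation served as the viability read-out. Cells (parental HEK293, 2,000/well) received compounds after at least 5 h at 37 C and were exposed for 18 h before a 30 min room-temperature reagent step.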
# [20] = target: Rap guanine nucleotide exchange factor 4 (Homo sapiens) (UniProt Q8WZA2); experiment: Confirmatory qHTS for agonist of cAMP-regulated guanine nucleotide exchange factor 4 (EPAC2) (AID 1645884);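 note: nucleotide exchange releases bodipy-GDP from Rap1 and this lowers its fluorescence; potency is the fitted concentration of half-maximal effect; nearly all actives have a fitted effect of over 65% in size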
# Tags give direction and shape of the fitted curve or compound fluorescence and quenching.
# Chain of UniProt Q8WZA2 (Q8WZA2 whole entry, looked up): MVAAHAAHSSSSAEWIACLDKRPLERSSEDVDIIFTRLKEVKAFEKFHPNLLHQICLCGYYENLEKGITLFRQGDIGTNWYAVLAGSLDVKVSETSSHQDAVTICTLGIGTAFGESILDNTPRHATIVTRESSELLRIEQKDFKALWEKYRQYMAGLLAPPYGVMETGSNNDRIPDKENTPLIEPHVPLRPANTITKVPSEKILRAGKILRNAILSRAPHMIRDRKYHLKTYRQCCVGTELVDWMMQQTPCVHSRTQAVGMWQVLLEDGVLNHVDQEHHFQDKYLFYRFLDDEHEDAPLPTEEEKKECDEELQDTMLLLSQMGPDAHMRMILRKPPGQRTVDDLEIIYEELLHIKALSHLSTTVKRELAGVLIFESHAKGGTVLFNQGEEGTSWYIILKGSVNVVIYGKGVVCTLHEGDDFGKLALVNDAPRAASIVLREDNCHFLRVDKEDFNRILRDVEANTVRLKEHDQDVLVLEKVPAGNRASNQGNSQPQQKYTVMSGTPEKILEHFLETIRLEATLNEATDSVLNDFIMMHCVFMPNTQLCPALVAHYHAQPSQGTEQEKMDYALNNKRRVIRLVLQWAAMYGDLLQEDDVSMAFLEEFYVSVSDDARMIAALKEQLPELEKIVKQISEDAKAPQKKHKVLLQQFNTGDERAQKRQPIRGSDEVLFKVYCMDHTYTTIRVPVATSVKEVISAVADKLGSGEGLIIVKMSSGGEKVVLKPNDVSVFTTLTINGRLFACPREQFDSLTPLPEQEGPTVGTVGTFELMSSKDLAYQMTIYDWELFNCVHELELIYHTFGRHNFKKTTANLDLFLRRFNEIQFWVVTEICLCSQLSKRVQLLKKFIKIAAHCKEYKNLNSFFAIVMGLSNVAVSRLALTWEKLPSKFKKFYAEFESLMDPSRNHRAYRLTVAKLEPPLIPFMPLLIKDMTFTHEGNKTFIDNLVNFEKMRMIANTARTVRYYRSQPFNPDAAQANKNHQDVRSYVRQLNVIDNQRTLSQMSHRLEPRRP
# Chain of UniProt Q03181 (Q03181 whole entry, looked up): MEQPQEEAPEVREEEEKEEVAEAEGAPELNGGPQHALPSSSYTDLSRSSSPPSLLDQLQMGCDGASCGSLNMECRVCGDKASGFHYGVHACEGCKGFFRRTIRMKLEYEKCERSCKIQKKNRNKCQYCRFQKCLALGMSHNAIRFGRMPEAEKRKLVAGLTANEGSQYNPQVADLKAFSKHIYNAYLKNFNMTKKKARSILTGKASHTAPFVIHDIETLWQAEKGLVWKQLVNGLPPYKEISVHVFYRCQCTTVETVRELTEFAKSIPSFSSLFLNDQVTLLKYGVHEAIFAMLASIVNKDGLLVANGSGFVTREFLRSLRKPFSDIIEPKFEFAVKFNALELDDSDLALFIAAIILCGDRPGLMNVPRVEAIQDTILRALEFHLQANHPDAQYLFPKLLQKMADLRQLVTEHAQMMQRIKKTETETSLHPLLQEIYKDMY
structure (smiles),measurement,setting,value
COC(=O)c1ccccc1C(=O)OC,Potency,[1],inactive
O=P(O)(O)C(Cl)(Cl)P(=O)(O)O,"activity, negative = inhibition",[2],inconclusive: 64% [activator]
same,Potency,[3],inactive
C/C(=C\c1csc(C)n1)[C@@H]1C[C@@H]2O[C@]2(C)CCC[C@H](C)[C@H](O)[C@@H](C)C(=O)C(C)(C)[C@@H](O)CC(=O)O1,Potency,[4],"inconclusive: 0.0541 µM [inhibitor, full curve]"
same,Potency,[5],"inconclusive: 0.0044 µM [inhibitor, full curve]"
O=[N+]([O-])c1ccccc1,Potency,[6],inactive
same,Potency,[7],inactive
O=[N+]([O-])c1ccc(F)c([N+](=O)[O-])c1,"activity change, negative = cytotoxicity",[8],inconclusive: -79.3%
same,Potency,[9],"inconclusive: 50.1 µM [falling, partial curve]"
same,"activity change, negative = cytotoxicity",[10],inconclusive: -44.9%
same,Potency,[11],"inconclusive: 79.4 µM [cytotoxic, single point]"
same,Potency,[12],"inconclusive: 79.4 µM [cytotoxic, single point]"
same,Potency,[13],"inconclusive: 50.1 µM [cytotoxic, partial curve, poor fit]"
same,Potency,[14],"inconclusive: 79.4 µM [cytotoxic, single point]"
same,Potency,[15],"inconclusive: 50.1 µM [cytotoxic, partial curve, poor fit]"
same,Potency,[16],inactive
same,Potency,[17],"inconclusive: 63.1 µM [cytotoxic, partial curve, poor fit]"
same,Potency,[18],"inconclusive: 20 µM [side channel, rising, full curve, poor fit]"
same,Potency,[19],"inconclusive: 10 µM [rising, partial curve, poor fit]"
O=C1CN=C(c2ccccc2)c2cc(Cl)ccc2N1CC1CC1,Potency,[20],"inconclusive: 70.6 µM [activator, partial curve, poor fit]"
